The values below come from US20240392020A1 (JIANGSU HENGRUI PHARMACEUTICALS, published 2024).

One assay deals with T1, HJ-4-L1.
T1 construct: also called chain 4 of HJ-4
In words: mass spectrometry of the product of four co-transfected chains of HJ-4; mispairing of heavy chain 1 with light chain 4.

A further assay deals with T2, Light chain of J1.
T2 construct: single antibody chain, co-expressed; also called HJ-1-L2; HJ-3-L2
Kind of assay: mass spectrometry of the product of four co-transfected chains of HJ-3; mispairing of heavy chain 1 with light chain 4.

The target of assay [1] is T3, hP40 (human, UniProt P29460 23-328).
T3 construct: bought
T3 sequence (looked up): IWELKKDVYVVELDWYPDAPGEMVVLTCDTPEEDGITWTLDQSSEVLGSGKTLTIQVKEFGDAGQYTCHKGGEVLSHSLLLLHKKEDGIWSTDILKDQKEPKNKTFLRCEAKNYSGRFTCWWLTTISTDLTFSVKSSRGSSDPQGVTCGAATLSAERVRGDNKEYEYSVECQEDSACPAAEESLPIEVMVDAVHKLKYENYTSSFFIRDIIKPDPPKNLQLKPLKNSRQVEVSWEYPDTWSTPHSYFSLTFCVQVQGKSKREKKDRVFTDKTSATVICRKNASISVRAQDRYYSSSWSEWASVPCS
Kind of assay: SPR Biacore T200, antibody captured on Protein A chip.

In assay [2] the target is T3, hP40. The description is as above. The source holds these as a separate data set.
For assay [3], the target named is T3, hP40. In words: ELISA.
Assay [4] has as its target T3, hP40. Kind of assay: ELISA. This is another data set of the same source.

Read-outs that look alike come from different tables or passages of the source.

T2 sequence (light, as listed by the source): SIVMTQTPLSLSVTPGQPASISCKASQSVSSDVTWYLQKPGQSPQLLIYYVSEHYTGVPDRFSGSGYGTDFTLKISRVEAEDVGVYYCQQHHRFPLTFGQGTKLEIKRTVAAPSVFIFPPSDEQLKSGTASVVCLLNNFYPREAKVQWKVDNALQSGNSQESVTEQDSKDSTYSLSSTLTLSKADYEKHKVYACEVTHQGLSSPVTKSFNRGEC

B1: HJ-4-H2 (other)
heavy: EVQLVQSGAEVKKPGSSVKVSCKASGYTFSNYLIEWVRQAPGQGLEWIGVIDPGVGDTNYNENFKGRATLTADKSTSTAYIELSSLRSEDTAVYYCAREDNTGTAFDYWGQGTTVTVSSGGGGSGIPPKIECLPIDISIDEGKVLTVASAFTGEPTPEVTWSTGGRKIHSQEQGRFHIENTDDLTTLIIKDVQKQDGGLYTLTLRNEFGSDSATVNIHIRSI[human IgG1 Fc with changes and a few adjoining residues cut from this listing]
notes: also called chain 1 of HJ-4
B1: the binding result with HJ-4-L1 is “no binding”.

B2: HJ-3-H1 (heavy chain of H0, knob, CH1 replaced with T.10-L1) (other)
heavy: EVQLVESGGGLVQPGGSLRLSCAASGFTFSHYYMAWVRQAPGKGLEWVTSISYEGDITYYGDSVKGRFTISRDNSKNTLYLQMNSLRAEDTATYYCASQTLRESFDYWGQGTLVTVSSGGGGSGIPPKIECLPIDISIDEGKVLTVASAFTGEPTPEVTWSTGGRKIHSQEQGRFHIENTDDLTTLIIKDVQKQDGGLYTLTLRNEFGSDSATVNIHIRSI[human IgG1 Fc with changes and a few adjoining residues cut from this listing]
notes: single antibody chain, co-expressed
On to B2, for which the binding result with Light chain of J1 is on record as “no binding”.

B3: Umab (antibody, human IgG1, kappa)
heavy: EVQLVQSGAEVKKPGESLKISCKGSGYSFTTYWLGWVRQMPGKGLDWIGIMSPVDSDIRYSPSFQGQVTMSVDKSITTAYLQWNSLKASDTAMYYCARRRPGQGYFDFWGQGTLVTVSS[human IgG1 constant region cut from this listing]
light: [about 200 residues cut from this listing]
notes: also called U0
Take B3: the Kd with hP40 [1] was 0.0689 nM; with hP40 [2] it was 0.0793 nM. Moreover, the koff in the assay with hP40 [1] stood at 0.000109 s⁻¹; in the assay with hP40 [2], 0.000114 s⁻¹. Moreover, the on-rate constant (kon) with hP40 [1] was 1.59e+06 M⁻¹ s⁻¹; with hP40 [2], 1.44e+06 M⁻¹ s⁻¹. Further, the EC50 in the assay with hP40 [3] worked out at 0.06 nM; with hP40 [4] it was 0.0888 nM.
